As usually defined, the Kd is the equilibrium constant for the complex coming apart.

Numbering of substitutions follows the chain as printed. Names may count otherwise.

The chains are these.
B1: PSI0242 (designed binder)
chain: AEAKYAKEVLEAWDEIDRLPNLTIEQWLAFINKLDDDPSQSSELLSEAKKLNDSQAPKVDGSLAEAKEAANAELDSYGVSDFYKRLIDKAKTVEGVEALKDAILAALP
notes: made in E. coli
B2: PSI0410 (designed binder)
chain: B1 chain with D60E
notes: D60E against PSI0242 (linker KVEGS, positions 52-53 remain ND)
B3: PSI0378 (designed binder)
chain: B1 chain with N52S, D53E, D60E
notes: N52S, D53E, D60E against PSI0242
B4: PSI0334 (designed binder)
chain: B1 chain with N52S, D53E
notes: N52S and D53E against PSI0242
B5: PSI0381 (designed binder)
chain: B1 chain with N52E, D53S, D60E
notes: N52E, D53S, D60E against PSI0242
B6: PSI0340 (designed binder)
chain: B1 chain with D35E

One test addresses T1, human complement component 5 (C5) (human, UniProt P01031 19-673; P01031 678-1676).
T1 construct: Bought human C5 (Quidel Cat #403 / A403); also called human C5; hC5
Description: BLI (ForteBio), compound captured on HSA sensor, human C5 0.79-25 nM in solution, 1:1 model. The procedure:
(§1) Human serum albumin was immobilized to Amine Reactive 2nd generation (AR2G) Dip and Read Biosensors (Pall Life sciences (ForteBio) Cat #18-5092) by amine coupling. […] Regeneration conditions for the sensors were 10 mM Glycine, pH 2 (three pulses with 30 seconds and running buffer for 60 seconds). Each spectrogram was reference subtracted against an analogous construct containing an albumin binding domain (SEQ ID NO: 250) but without the C5 binding capacity. The data were analyzed according to Langmuir 1:1 model using ForteBio Analysis 7.1 (Pall Life sciences (ForteBio) kinetics software).
A general note: BLI is a label-free optical method that tracks binding on a fibre tip over time.
B1 showed a Kd of 1 to 3 nM.

Another test concerns the target T2, human albumin (human, UniProt P02768 25-609).
T2 construct: also called recombinant human albumin; human serum albumin
Description: ELISA on coated recombinant human albumin, amount bound read against a PSI0242 standard curve. (In general: In an ELISA, binding on a coated surface is turned into a signal by an enzyme label.)
Turning to B2, the “% of total protein content” value turned out to be 150%.

Consider B1, for which the “% of total protein content” value stood at 103%.

Turning to B3, the “% of total protein content” value came to 85%.

The next test has as its target T1, human complement component 5 (C5). Briefly: BLI (ForteBio), compound captured on HSA sensor, human C5 in solution. The procedure: as §1
In the case of B4, the “Rel. KD (KD relative to PSI0242)” value came to 1.1.

Regarding B1, the “Rel. KD (KD relative to PSI0242)” value was 1.

Regarding B3, the “Rel. KD (KD relative to PSI0242)” value came out at 1.3.

For the molecule B5, the “Rel. KD (KD relative to PSI0242)” value stood at 23.

The next test shares this target. Briefly: SPR (Biacore T200), human C5 amine-coupled to CM5 chip, single cycle kinetics, 1:1 model.
Consider B2, for which binding was characterised by a dissociation constant (Kd) of 1.3 nM.

Turning to B1, the Kd is 1.3 nM.

Take B3: the Kd came out at 2.1 nM.

Regarding B6, binding was put at a Kd of 2.5 nM.

A further test shares this target. Briefly: cell-based or functional assay.
Take B2: the “IC 50 (nM), inhibition of hemolysis of antibody sensitized sheep erythrocytes” value (shortened to “IC 50 (nM), inhibition”) is 0.49 nM and the “Potency (%), inhibition of hemolysis of antibody sensitized sheep erythrocytes” value (from here on “Potency (%), inhibition”) came to 107%.

With B1, the “IC 50 (nM), inhibition” value came out at 0.47 nM and the “Potency (%), inhibition” value was determined as 100%.

As to B3, the “IC 50 (nM), inhibition” value is 0.58 nM and the “Potency (%), inhibition” value came out at 83%.
